Hit rate of the full screen: of about 310,000 compounds, about 2,200 (0.71%) showed an effect of 50% or more. Effects have a minus sign here. This is one part of the list.
What follows are compounds tested against human ether-à-go-go-related gene (hERG) potassium channel (human, UniProt Q12809) (assay: primary screen, population patch clamp on CHO cells stably expressing hERG).
Chain of human ether-à-go-go-related gene (hERG) potassium channel (Q12809 whole entry, looked up): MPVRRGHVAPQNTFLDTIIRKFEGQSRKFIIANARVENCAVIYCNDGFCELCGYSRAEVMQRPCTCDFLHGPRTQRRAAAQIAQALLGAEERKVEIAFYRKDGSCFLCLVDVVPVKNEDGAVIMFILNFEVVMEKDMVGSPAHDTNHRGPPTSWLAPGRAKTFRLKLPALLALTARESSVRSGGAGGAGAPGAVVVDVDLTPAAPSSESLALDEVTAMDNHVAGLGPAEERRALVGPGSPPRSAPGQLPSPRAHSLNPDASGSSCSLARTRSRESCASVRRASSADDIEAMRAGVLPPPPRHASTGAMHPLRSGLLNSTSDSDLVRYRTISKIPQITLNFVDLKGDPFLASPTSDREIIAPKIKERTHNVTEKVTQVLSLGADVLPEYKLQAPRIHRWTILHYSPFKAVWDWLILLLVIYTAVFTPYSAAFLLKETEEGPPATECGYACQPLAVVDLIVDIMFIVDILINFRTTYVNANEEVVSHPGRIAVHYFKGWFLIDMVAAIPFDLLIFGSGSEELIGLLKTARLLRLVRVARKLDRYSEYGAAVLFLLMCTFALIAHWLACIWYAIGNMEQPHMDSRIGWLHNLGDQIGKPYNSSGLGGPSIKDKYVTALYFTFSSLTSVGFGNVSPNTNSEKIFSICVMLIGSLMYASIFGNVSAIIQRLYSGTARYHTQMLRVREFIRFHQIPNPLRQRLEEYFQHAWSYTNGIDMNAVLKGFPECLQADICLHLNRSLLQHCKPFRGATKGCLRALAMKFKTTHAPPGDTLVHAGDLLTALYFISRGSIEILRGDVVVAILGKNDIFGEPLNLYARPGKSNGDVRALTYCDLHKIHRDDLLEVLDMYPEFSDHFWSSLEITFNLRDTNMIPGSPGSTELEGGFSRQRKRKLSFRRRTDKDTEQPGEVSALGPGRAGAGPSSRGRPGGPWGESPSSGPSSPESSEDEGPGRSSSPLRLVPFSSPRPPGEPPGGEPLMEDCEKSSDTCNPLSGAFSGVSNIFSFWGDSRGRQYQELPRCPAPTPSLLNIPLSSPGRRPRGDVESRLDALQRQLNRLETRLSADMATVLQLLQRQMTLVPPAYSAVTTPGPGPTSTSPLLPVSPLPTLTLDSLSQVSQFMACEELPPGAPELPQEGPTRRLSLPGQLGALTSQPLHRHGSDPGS

SMILES | hERG current change (%, negative = inhibition) at 1uM [%]
Cc1cccn2c(=O)c3cc(C(=O)NCC4CCCO4)c(=N)n(Cc4ccc(F)cc4)c3nc12 (stereo not drawn) | -80.4
Cc1ccc2oc(=O)c3cnn(CC(=O)Nc4cc(-c5cccc(F)c5)no4)c3c2c1 | -6.17
O=c1oc(-c2ccccc2F)nc2scc(-c3ccccc3)c12 | -13
O=[N+]([O-])c1ccc(C2(O)CN(c3ccccc3)C3=[N+]2CCS3)cc1.[Br-] (stereo not drawn) | -23.1
O=C(Nc1ccc(OC(F)(F)F)cc1)c1cnc2n(c1=O)CCS2 | -20.1
Cc1cc(=O)oc2c(C)c(OCC(=O)N(C)C)ccc12 | 11.1
CC1CN(C(=O)c2cc3c(=O)n4ccccc4nc3n2C)CC(C)O1 (stereo not drawn) | 12
O=C(NC1CCCC1)C(c1cccs1)N(C(=O)c1ccco1)c1ccc2c(c1)OCCO2 (stereo not drawn) | -3.36
CC1(C)CC(=O)c2cc(OCC(=O)NCCCN3CCN(c4ccccc4F)CC3)ccc2O1 | -26
NS(=O)(=O)c1cccc(NC(=O)Nc2ccc(Cl)cc2)c1 | -3.34
COc1ccc(-c2cc(=O)oc3cc(OC(C)C(=O)NCC4CCC(C(=O)O)CC4)ccc23)cc1 (stereo not drawn) | 12
CCC(Sc1nc(C)cc(C)n1)C(=O)Nc1cc(C)on1 (stereo not drawn) | 2.89
O/N=C(\c1ccccn1)C1CC1c1ccccc1 (stereo not drawn) | 17.4
Cc1ccc(S(=O)(=O)N(C)C)cc1NC(=O)COC(=O)c1ccc2c(c1)OCO2 | 4.43
Cc1nnc(SCC(=O)N2CCN(c3ccccc3)CC2)n1C1CC1 | 7.46
CC(Oc1ccc(Cl)cc1)C(=O)NCC1CCCO1 (stereo not drawn) | 4.74
O=C1CCCN1CCCNS(=O)(=O)c1ccccc1 | 16.7
CC(=O)N1c2ccc(S(=O)(=O)N3CCC(C(=O)Nc4cccc(F)c4)CC3)cc2CC1C (stereo not drawn) | 12.9
CCC(CC)NC(=O)CSc1ccc(S(=O)(=O)N2CCOCC2)cn1 | 4.25
CCOC(=O)c1ccc(NC(=O)c2nc[nH]c2C(=O)N[C@@H](CC(C)C)C(=O)OC(C)(C)C)cc1 | 9.16
COc1ccccc1C(=O)NC(C)c1ccc(-n2ccnc2)cc1 (stereo not drawn) | 10.9
Cn1c(N)cc(-c2ccc(F)cc2)c(C#N)c1=O | 1.35
CC(C)(C)n1nc2c(c1NC(=O)COc1ccc3ccccc3c1)CS(=O)(=O)C2 | -26

SMILES | hERG current change (%, negative = inhibition) at 1uM [%]
Cc1ccc(C(=O)Nc2ccccc2-c2ccccc2)o1 | 6.14
CCOc1ccc(Oc2c(/C=N/NC(C)=O)c(C)nn2-c2ccccc2)cc1 | 8.88
CCOc1cc2[nH]c(=O)n(CCC(=O)NCCc3ccc(OC)c(OC)c3)c(=O)c2cc1OCC | 13.9
O=c1oc2ccccc2c(O)c1C=Nc1cccnc1 | 10.5
COc1cccc(-c2ccc(NC(=O)C3CCCN(Cc4cnn(C)c4C)C3)cc2)c1 (stereo not drawn) | 10.9
Cc1ccc(Nc2nc(N)nc(COC(=O)C3=COCCO3)n2)cc1 | 9.68
Cc1cc(C)n2nc(C(=O)N3CCN(c4ccc([N+](=O)[O-])cc4)CC3)nc2n1 | -77.6
Cc1cc(NS(=O)(=O)c2ccc(NC(=O)CCSc3ccc(F)cc3)cc2)nc(C)n1 | 11.3
CCOC(=O)c1cc(S(=O)(=O)N(C)Cc2ccccc2)cn1C | 8.44
CC1(C(=O)NCCN2CCOCC2)C=CC2(CCCCC2)N1C(=O)c1ccccc1 (stereo not drawn) | 12.7
CN(c1cccc(NS(=O)(=O)c2cccs2)c1)S(C)(=O)=O | 19.2
CC(=O)NC1C(OCCOc2ccc(Cl)cc2Cl)OC(COC(C)=O)C(OC(C)=O)C1OC(C)=O (stereo not drawn) | -7.85
O=C(NC1CC2CCCC(C1)N2C(=O)Nc1ccc(F)cc1)c1ccccc1 (stereo not drawn) | 2.84
COc1ccc(CCNC(=O)CSc2nc(O)c(CC(C)C)c(=O)[nH]2)cc1OC | 2.77
CC1CCN(Cc2c(C(=O)N/N=C/c3ccc(C(C)(C)C)cc3)nnn2-c2nonc2N)CC1 | 19.3
N#Cc1nc(-c2ccco2)oc1NCCN1CCOCC1 | 8.01
COc1cccc(C(=O)CSc2nc3ccccc3n2CC(=O)N(C(C)C)C(C)C)c1 | 3.26
CCS(=O)(=O)/N=C(\N)c1ccccc1 | -0.633
CCOC(=O)CC(=O)Nc1ccn[nH]1 | 14.4
O=c1cc(-c2ccccc2)[nH]n2cnnc12 | 9.09
Brc1ccc(OCCCCN2CCCCC2)cc1 | -11.6
c1ccc2c(c1)c1ccccc1n1c(-c3ccc4c(c3)OCO4)nnc21 | 9.56
